The record followed here is PubChem BioAssay AID463173 (ICCB-Longwood Screening Facility, Harvard Medical School, 2010).

Among all 52,000 compounds or so, about 1,700 (3.3%) were called active. Rule as the data show it: active = survival mostly below about 52% (no sharp cut-off); inactive = mostly above about 56%. The list shows a part of the results.

This assay concerns Wild type. As to the kind of experiment: growth inhibition of S. aureus wild type versus tarO mutant, primary screen, teichoic acid synthesis inhibitors, RN4220, OD600 (AID 463173). As to conditions: S. aureus RN4220 wild type/DeltatarO growth, OD600, 18 h, stronger effect = lower value, screened at 18.75 µg/mL (by protocol).
For `COc1cccc(CNC(=O)NCc2noc3ccc(C)cc23)c1`, the survival is inactive: 89%. Then `CCOc1ccc(N(CC)S(=O)(=O)N2CCCC(C(=O)NCc3ccc(SC)cc3)C2)cc1` (stereo unspecified), with inactive: 87%; and `CC1CCN(CC(=O)Nc2ccc(C(=O)O)cc2)CC1`, with inactive: 99%. The result for `COc1cc(C2/C(=C(\O)c3ccc(F)cc3)C(=O)C(=O)N2Cc2cccnc2)ccc1O` (stereo unspecified) reads inactive: 101%; that for `Cc1ccc(NC(=O)CN2C=NS(=O)(=O)c3ccccc32)c(C)c1`, inactive: 71%; that for `COc1ccc(N2CCN(C(=O)CCS(=O)(=O)c3cc(Br)cc4c3N(C(=O)C3CC3)CC4)CC2)cc1`, inactive: 83%. Then `NCc1ccoc1C(=O)O`, with inactive: 108%. Take `COc1ccc(NC(=O)CN2C(=O)COc3ccc(S(=O)(=O)N4CCOCC4)cc32)cc1Cl`: the survival is inactive: 97%.

Regarding `COc1ccc(NC(=O)Nc2nnc(N3CCCCCC3)s2)c(OC)c1`, the survival was inactive: 78%.

For `COc1ccc(C(=O)N2CCN(c3nc4c(C)c(Cl)ccc4s3)CC2)c(OC)c1`, the survival was inactive: 88%.

Regarding `CCOc1ccc(NC(=O)CN(C)S(=O)(=O)c2ccc3[nH]c4c(c3c2)CCCC4)cc1`, the survival is inactive: 65%. The result for `Cc1cc(-c2ccc(S(=O)(=O)Nc3cccc(Cl)c3C)cc2)on1` reads inactive: 75%.

In the case of `Cc1ccc(NC(=O)Cn2c(=O)ccc3cc(S(=O)(=O)N4CCCC4)ccc32)cc1N(C)C`, the survival is active: 0%. Then `O=C(c1ccc(Cl)cc1)c1cn(Cc2ccccc2)c2cc3c(cc2c1=O)OCCO3`, with inactive: 107%; and `Cc1cc(C(=O)Nc2cccc(C)c2C)c2c(C)nn(-c3cccc(F)c3)c2n1`, with inactive: 73%. The result for `COc1cc(OC)c(OC)cc1/C=C/c1nc2ccccc2c(=O)n1-c1ccc(Br)c(C)c1` reads inactive: 85%; that for `Cc1ccc(Cl)cc1N1CCN(C(=O)C2CCCN(Cc3nc(-c4cccc(Cl)c4)oc3C)C2)CC1` (stereo unspecified), inactive: 84%; that for `CCCCNc1nc2c(c(=O)n(Cc3ccccc3)c(=O)n2C)n1C`, inactive: 67%. The result for `COc1ccc(N(C)C(=O)c2cc3c(s2)-c2ccccc2OC3)cc1` reads active: 13%; that for `Cc1ccc(NC(=O)C2CCCN(S(=O)(=O)c3ccc4c(c3)CCCC(=O)N4)C2)cc1Cl` (stereo unspecified), inactive: 92%.

As to `COc1ccc(CCNC(=O)C(=O)NCC(c2cccnc2)N2CCN(c3ccccc3)CC2)cc1` (stereo unspecified), the survival is inactive: 105%.

In the case of `CCC(C(=O)NCCc1ccc(Cl)cc1)n1ccc2cc(S(=O)(=O)N3CCCCC3)ccc21` (stereo unspecified), the survival is inactive: 101%. Then `O=C(NCc1ccc(Cl)cc1)c1ccc2c(c1)N(Cc1ccccc1F)C(=O)c1ccccc1S2=O` (stereo unspecified), with inactive: 148%; and `CCc1ccc(CNC(=O)c2ccc(CS(=O)(=O)Cc3cccc(C)c3)o2)cc1`, with inactive: 73%. For the compound `CCn1c(=O)cc(SCC(=O)NCc2ccc(C)cc2)c2ccccc21`, the survival was inactive: 80%. The result for `C=Cc1ccc(Cn2c(=O)n(CC3CCC(C(=O)NC(C)C)CC3)c(=O)c3sccc32)cc1` (stereo unspecified) reads inactive: 81%; that for `O=C(NCc1ccco1)c1ccc2c(c1)N(Cc1ccccc1F)C(=O)c1ccccc1S2(=O)=O`, inactive: 96%.

With `CC(=O)Nc1ccc(S(=O)(=O)N(Cc2ccccc2)Cc2ccccc2)cc1`, the survival was inactive: 55%. Then `CCOc1ccccc1-c1nc(C(N)=O)c2c(n1)n(-c1ccc3c(c1)OCO3)c(=O)n2C`, with inactive: 71%; and `COc1cccc(NC(=O)CCN2CCN(CCO)CC2)c1`, with inactive: 138%; and `CCCCNC(=O)c1ccc2c(c1)NC(=O)C(CS(=O)(=O)Cc1ccc(F)cc1Cl)N2` (stereo unspecified), with inactive: 91%. The result for `CCCC(=O)Nc1ccc2nc(SCc3ccc(C)cc3)sc2c1` reads inactive: 113%. The result for `CC(C)CCNC(=O)c1ccc2c(c1)nc1n2CCCCC1` reads inactive: 93%.

On to `Nc1ccc2oc(Cc3ccc(Cl)cc3)nc2c1`, for which the survival is inactive: 75%. As for `COc1ccc(C)cc1NC(=O)Cc1c(C(=O)O)c(C)cn1C`, the survival is inactive: 74%. Then `COCCNc1ccc(-c2nc(-c3ccccn3)no2)cc1[N+](=O)[O-]`, with inactive: 82%. Then `Cc1cccc(OCC(=O)Nc2ccccc2C(=O)OCc2cc(=O)n3nc(C4CC4)sc3n2)c1`, with inactive: 68%; and `CC(C)CCn1c(=O)c2sccc2n2c(CCCC(=O)NC(C)c3ccccc3)nnc12` (stereo unspecified), with inactive: 101%.

`Cc1cccc(-n2cnc3cc(C(=O)NC4CCCCCC4)ccc32)c1`: the survival is inactive: 124%.

Consider `CC(=O)c1cccc(NC(=O)CSc2nc3c(=O)n(C)c(=O)n(C)c3n2C)c1`, for which the survival was inactive: 55%. The result for `Cc1ccc(CCNC(=O)c2cc3c(=O)n(C)c4ccccc4c3n2C)cc1` reads inactive: 80%; that for `Cc1cccc(N2CCN(c3nc4ccccc4c4nc(-c5cccnc5)nn34)CC2)c1C`, inactive: 89%; that for `CCn1cc(C(=O)Nc2ccc(C(C)C)cc2)c2cc(OC)c(OC)cc2c1=O`, inactive: 103%.

With `CCc1cccc(N2C(=O)N(Cc3c(F)cccc3Cl)c3ccccc3S2(=O)=O)c1`, the survival was inactive: 69%. Then `Cc1ccc2cc3cc(C(=O)N(C)c4ccccc4C)oc3nc2c1`, with inactive: 40%. The result for `CCOC(=O)c1ccc(NC(=O)c2c(NCc3cc(OC)ccc3OC)sc3c2CCC3)cc1` reads inactive: 69%; that for `CCc1cnc2c(c1SCCC(C)C)c(=O)n(C)c(=O)n2C`, inactive: 79%; that for `Cc1cccc(C)c1NC(=O)CN1C(=O)c2ccccc2Sc2ncccc21`, inactive: 92%. Then `COc1ccc(-c2noc(CSc3nnc(-c4ccccc4)n3C)n2)cc1`, with inactive: 79%; and `CC(C)OCCCNC(=O)c1nn(C)c2c1CSc1ccccc1-2`, with inactive: 95%; and `CCCOC(=O)c1ccc(Nc2c(C(=O)OCC)cnc3c(C)cc(Cl)cc23)cc1`, with active: 4%. `CC(=O)c1cc(-c2ccccc2)n(CC(=O)NCc2ccccc2C)c1C`: the survival is inactive: 85%. Consider `COC(=O)c1cc2sc(C)cc2n1CC(=O)Nc1ccc(C)cc1Cl`, for which the survival is inactive: 86%.

Turning to `C=CCn1c(N)cc(=O)nc1SCC(=O)NC1CCCCC1`, the survival is inactive: 97%. The result for `COc1ccc(C)cc1NC(=O)CN1CCN(S(=O)(=O)c2ccc(Br)cc2)CC1` reads inactive: 55%; that for `Cc1oc2c(cc(NS(=O)(=O)c3ccc(F)cc3)c3ccccc32)c1C(=O)OCc1ccccc1`, inactive: 65%; that for `COc1ccc(NC(=O)C2CCC(CNS(=O)(=O)c3cccs3)CC2)cc1OC` (stereo unspecified), inactive: 121%. Then `Clc1ccccc1-c1nnc(-c2ccccc2CNc2ccccc2)o1`, with inactive: 96%.

`Cn1c(CNC(=O)c2ccccc2)n[nH]c1=S`: the survival is inactive: 121%. Take `Cc1cccc(CC(=O)Nc2cccc(-c3nc4cccnc4s3)c2)c1`: the survival was inactive: 113%.

`CCN1CCc2c(sc(-n3cccc3)c2C(C)NC(=O)Nc2ccccc2C)C1` (stereo unspecified): the survival is inactive: 72%. Then `COc1ccccc1CNC(=O)c1cc2ccc3ccc(C)[nH]c3c2n1`, with inactive: 81%; and `Cc1ccccc1CSCCNC(=O)CN(c1ccccc1)S(=O)(=O)N(C)C`, with inactive: 67%; and `Cc1ccc(C)c(N2CCN(S(=O)(=O)c3csc(C(N)=O)c3)CC2)c1`, with inactive: 78%. Then `CCCNc1c2c(nc3ccccc13)CC(C)(C)CC2=O`, with inactive: 112%; and `CCn1nnc2cc(C(=O)Nc3cccc(C)c3C)ccc21`, with inactive: 64%. The result for `C=CCn1cc(/C=C(\C#N)C(=O)NC2CCCCC2)c2ccccc21` reads inactive: 123%; that for `Cc1cccc(Oc2ccc(NC(=O)CCC(=O)OCC(=O)c3ccc(Br)cc3)cc2)c1C`, inactive: 80%; that for `COc1cccc(C(C(=O)NCc2ccccc2)N(C(=O)Cn2nnc3ccccc32)c2cccc(C(C)=O)c2)c1` (stereo unspecified), inactive: 84%. In the case of `Cc1ccc(C)c(CSc2cn(CCNC(=O)c3ccccc3F)c3ccccc23)c1`, the survival was inactive: 30%.

With `COc1ccc(NC(=O)c2oc3ccc(S(=O)(=O)N4CCC5(CC4)OCCO5)cc3c2C)cc1Cl`, the survival was inactive: 74%. The result for `COc1cc(C2c3c(-c4ccccc4O)n[nH]c3C(=O)N2CCO)ccc1OCC(C)C` (stereo unspecified) reads inactive: 108%; that for `COc1ccc(Cc2c(C)nn(-c3nc(C)c(C(=O)Nc4ccc(C)cc4C)s3)c2C)cc1`, inactive: 79%.

In the case of `CCCN1CCN(CCCNC(=O)c2ccc(CS(=O)c3ccc(OC)cc3)o2)CC1` (stereo unspecified), the survival was inactive: 83%.

In the case of `CCN(CC)CCNC(=O)c1cc2c(=O)oc3ccc(C)cc3c2s1`, the survival was inactive: 72%. The result for `CCCN(CCC)C(=O)CSc1nnc2cc(C)c3ccccc3n12` reads inactive: 84%.

Take `CCCCc1ccc(NC(=O)CSc2nnc3[nH]c(=O)cc(C)n23)cc1`: the survival was inactive: 80%. `COC(=O)COc1cc(C)nc(SC)n1`: the survival is inactive: 98%. Then `Cc1cc(C)c(Cn2c3ccccc3c3cnn(CC(=O)NCC(C)c4ccccc4)c(=O)c32)c(C)c1` (stereo unspecified), with inactive: 80%; and `O=C(/C=C/c1ccc(Cl)cc1)Nc1nc(-c2cccs2)ns1`, with inactive: 75%. Then `Cc1ccc(NC(=O)Cn2nnc3sc4c(c3c2=O)CCCC4)c(C)c1`, with inactive: 72%; and `COc1ccc(Cc2nnc(SCC(=O)N3CCCC3)o2)cc1`, with inactive: 109%; and `O=C(Nc1ccccc1)C1CCCN1C(=O)NCc1ccccc1` (stereo unspecified), with inactive: 101%.

Regarding `CCn1cc(C(=O)NCc2ccc(F)cc2)c(=O)c2cc(S(=O)(=O)N(C)C)ccc21`, the survival is inactive: 77%. `Cn1c(SCCC(=O)O)nnc1-c1ccncc1`: the survival was inactive: 105%.

With `O=C(O)C1CSC2(CCN(Cc3ccccc3)CC2)N1` (stereo unspecified), the survival was inactive: 103%. Then `COc1ccc(-n2c(CCC(=O)O)ccc2-c2ccccc2)c(OC)c1`, with inactive: 69%; and `CC(=O)N1CCCc2cc(S(=O)(=O)N(Cc3ccccc3)C(C)C)ccc21`, with inactive: 73%. For the compound `COc1cc(OC)c(NC(=O)CCNS(=O)(=O)c2ccc3c(c2)oc(=O)n3C)cc1Cl`, the survival is inactive: 67%. The result for `CC(=O)Nc1cccc(NC(=O)C(=O)NCCc2csc3nc(-c4ccccc4F)nn23)c1` reads inactive: 57%; that for `CCOC(=O)c1ccccc1NC(=O)c1nn(C)c2c1COc1ccccc1-2`, inactive: 77%.
